Source: PubChem BioAssay (NCI)
Several values for one entry are separate records, joined by “and”; a condition that tells them apart may be missing. Equal values may be shown once.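 Where inhibition never reached the appropriate level, the endpoint shown equals the highest concentration tested. Otherwise, values were interpolated linearly from a five-concentration, 48-hour dose response in 96-well plates. GI50 marks 50% less growth. At the TGI there is no net growth.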

What follows are molecules tested on NCI-H322M lung (assay: NCI-60 cell line screen, 48 h).
In the case of `O=C1[C@H]2ON(c3ccccc3)C(c3cccc([N+](=O)[O-])c3)[C@H]2C(=O)N1c1ccc(Cc2ccc(N3C(=O)[C@@H]4ON(c5ccccc5)C(c5cccc([N+](=O)[O-])c5)[C@@H]4C3=O)cc2)cc1` (some centres not stated), the TGI is reported as > 100 µM. In the case of `CC(=O)Nc1ccc2c(c1)nc1c3ccccc3ccn21`, the TGI is reported as > 100 µM. For `Cc1cc(C(=O)Nc2cc(Nc3ncccc3-c3ncnc4nc[nH]c34)ccc2F)cc(C(C)(C)C#N)c1`, the GI50 was 3.95 µM and the TGI was > 100 µM. With `COC(=O)C1=C(C(=O)OC)N(C(C)C)[C@H]2C(C(=O)OC)=C(C(=O)OC)N(C(C)C)[C@@H]12` the TGI was > 100 µM. Molecule `COc1ccc2[nH]c3c(C)c4cc[n+](COC(=O)c5ccccc5)cc4c(C)c3c2c1` has a TGI of 5.68 µM. Molecule `CCc1ccc(OCc2ccccc2C(=O)Nc2ccc3nc(C)cc(N)c3c2)cc1` has a GI50 of 1.6 µM and a TGI of 2.97 µM. With `Cc1ccc2nc(Nc3ccccc3C)c(Nc3ccccc3C)nc2c1` the TGI was > 100 µM. With `COC(=O)Cc1cc(=O)oc2c1C(=O)CCC2` the TGI was > 100 µM. `CN1CCN(CCCOc2ccc3ncnc(Nc4ccc(Oc5cccc(F)c5)c(Cl)c4)c3c2)CC1` showed a GI50 of 1.33 µM and a TGI of 2.94 µM. For `O=C1c2c(Br)sc(Br)c2[C@H]2OC(=S)N[C@@H]12`, the TGI was 29 µM. In the case of `COc1cc(-c2nn3c(=O)n(-c4ccc(Cl)cc4)c(=O)nc3s2)cc(OC)c1OC`, the TGI is reported as > 100 µM. With `C(/C=C/N1CCCC1)=C\c1nc(N2CCCC2)c2ccccc2n1` the TGI was > 100 µM. For `COC12C=C/C(=C(/C(=O)OCc3csc(SC)n3)C(=O)CCCCCCCCC3(OC)C=C/C(=C(/C(=O)OCc4cnc(SC)s4)C(=O)CCCCCCCC1)O3)O2` (configuration not stated), the GI50 was 8.52 µM and the TGI was > 100 µM. `COc1ccc(CNC(=O)c2ccc(-c3cc(-c4nnc(C)o4)ccc3C)cc2)cc1` was tested, and the GI50 was > 25 µM and the TGI was > 25 µM. In the case of `Fc1ccc(-c2cc(-c3cn[nH]c3-c3ccccn3)ccn2)cc1`, the GI50 is reported as > 25 µM and the TGI is reported as > 25 µM. In the case of `O=C(CCl)Nc1ccc(C(=O)N/N=C/c2ccc(Cl)cc2)cc1`, the GI50 is reported as 2.55 µM and the TGI is reported as 7.7 µM and 25.4 µM. `NC(=O)c1c(NC(=O)c2cccc(C(F)(F)F)c2)sc2c1CCC(=O)C2` was tested, and the GI50 was > 23 µM and the TGI was > 100 µM. With `c1cc2ccc1C1NCCCN1CCN1CCCNC1c1ccc(cc1)C1NCCCN1CCN1CCCNC21` (configuration not stated) the TGI was > 100 µM. With `Cc1ccc(N2C(=O)/C(=C3\Sc4c(nc(C)n(C)c4=O)N3c3ccccc3)SC2=S)cc1` the TGI was > 100 µM. `Brc1ccc(/C(N=N/C(=N\Sc2ccccc2)c2ccc(Br)cc2)=N/Sc2ccccc2)cc1` was tested, and the TGI was > 100 µM. With `C1=CC=C2NCCSCCNC3=CC=CC=CC3=NCCSCCN=C2C=C1` the TGI was > 100 µM. In the case of `N#Cc1ccnc(C(=O)N2CCCC2C(=O)O)c1` (configuration not stated), the TGI is reported as > 100 µM. `CCOc1cccc(/C=N/NC(=O)Cc2ccc(Nc3ccnc(C(F)(F)F)c3)cc2)c1O` was tested, and the GI50 was 2.6 µM and the TGI was > 100 µM. With `COc1cc2c3cc1Oc1cc(ccc1O)C[C@@H]1c4c(cc(OC)c(O)c4Oc4ccc(cc4)C[C@@H]3[N+](C)(C)CC2)CC[N+]1(C)C` the TGI was > 100 µM. Molecule `NCCNc1nc2ccccc2c2c(=O)c3cc(F)cc(Cl)c3sc12` has a GI50 of 1.5 µM and a TGI of 2.85 µM. For `Cc1cc(N(CCC#N)CCC#N)ccc1/C=C/C(=O)Nc1ccccc1Cl`, the TGI was > 100 µM. In the case of `CC(Br)CN(CC(C)Br)c1ccc2c(c1)Cc1ccccc1-2` (configuration not stated), the TGI is reported as 31.7 µM. In the case of `O=c1[nH]nc(-c2ccc([N+](=O)[O-])cc2)[nH]1`, the TGI is reported as > 100 µM. With `O=C(O)C(CS)N=Cc1nc(-c2ccccc2)oc1O` (configuration not stated) the TGI was > 100 µM. For `Cc1ccc2c(C(C[N+](=O)[O-])c3ccco3)c(-c3ccccc3)[nH]c2c1` (configuration not stated), the GI50 was > 100 µM and the TGI was > 100 µM. For `O=C1CCCC2=C1CC1=C(CCCC1=O)N2c1ccc(-c2ccccc2)cc1`, the TGI was > 100 µM. In the case of `CC[C@H](C)[C@H](NC(=O)N[C@@H](C)c1ccccc1)C(=O)N(C)[C@H](C[C@@H](OC(C)=O)c1nc(C(=O)N[C@@H](Cc2ccccc2)C[C@H](C)C(=O)OC)cs1)C(C)C`, the GI50 is reported as 45 µM and the TGI is reported as > 100 µM. `CCC(C)C(NC(=O)C(CCCC[N+](=N)N)NC(=O)C(CCCC[N+](=N)N)NC(=O)c1ccc(OC)cc1)C(=O)NC(CCCC[N+](=N)N)C(=O)N1CCCC1C(=O)NC(CCCCN)C(=O)NC(CC(C)C)C(N)=O` (configuration not stated) was tested, and the TGI was > 100 µM. For `Nc1ccc2c(SCC(=O)Nc3ccccc3-c3ccccc3NC(=O)CSc3c4ccccc4nc4cc(N)ccc34)c3ccccc3nc2c1`, the TGI was 80.6 µM. `CCC1(Cl)C(=O)NC(=O)N(C2CC(O)C(CO)O2)C1N=[N+]=[N-]` (configuration not stated) was tested, and the TGI was > 100 µM. With `CCOC(=O)C(=Cc1c(-c2ccccc2)[nH]c2ccccc12)C(=O)OCC` the GI50 was 12.7 µM and the TGI was 54.1 µM. For `CC1=[N+]([O-])C2(CCCC2)N(O)C1(C)C`, the TGI was > 100 µM. `COc1ccc(-c2cn(-c3cc(OC)c(OC)c(OC)c3)c(=O)n2-c2ccccc2)cc1` was tested, and the GI50 was > 100 µM and the TGI was > 100 µM. With `C/C(=C\CO)CC[C@@H]1[C@@]2(C)CCCC(C)(C)[C@@H]2CC[C@@]1(C)O` the TGI was > 100 µM. For `CCn1c(-c2nonc2N)nc2c(C#CC(C)(C)O)ncc(OC[C@@H]3CCCN3)c21`, the GI50 was 8.67 µM and the TGI was > 25 µM. With `CC(=O)[O-].O=[N+]([O-])c1ccc([O-])c(C=NCCN=Cc2cc([N+](=O)[O-])ccc2[O-])c1.[Mn+3]` the GI50 was > 100 µM and the TGI was > 100 µM. In the case of `CC1=NN(c2cccc(Cl)c2)C2(C1=Cc1ccc(N(C)C)cc1)C(Cl)C(=O)N2c1nc2ccccc2s1` (configuration not stated), the TGI is reported as > 100 µM. `CCCC(=O)Nc1cn(COC)c(C(=O)N2C[C@H]3C[C@@]34C2=CC(=O)c2[nH]cc(C)c24)n1` was tested, and the GI50 was 14.3 µM and the TGI was 32.2 µM and > 100 µM. Molecule `CC(C)(C)C#CI1OC(=O)c2ccccc21` has a TGI of 26.2 µM. `CCOC(=O)/N=c1\ssc(Cl)c1Cl` gave a GI50 of 12.7 µM and a TGI of 29.6 µM. With `Nc1cc2nc(-c3ccccc3)cn2cn1` the TGI was > 100 µM. `COC(=O)Cc1c2n(c3ccccc13)C(=O)N1c3ccccc3C(CC(=O)OC)C21` (configuration not stated) was tested, and the TGI was > 100 µM. In the case of `CCOC(=O)c1c(-c2ccc(OC)cc2)c(C#N)c(=S)n(C2OC(CO)C(O)C(O)C2O)c1C` (configuration not stated), the TGI is reported as > 100 µM. `CCOP(=O)(CC1OC(CO)C(O)C1O)OCC` (configuration not stated) was tested, and the TGI was > 100 µM. Molecule `CC1(C)Oc2ccccc2N2O[C@@H]3C(=O)N(c4ccccc4)C(=O)[C@@H]3C21c1ccccc1` (some centres not stated) has a TGI of 70.8 µM. `Clc1sc(Cl)c2c1[C@H](Br)C[C@@H]2Cl` was tested, and the TGI was > 100 µM. For `CC(=O)Nc1ccc2c(c1)CN1C(=O)c3ccccc3C1=N2`, the GI50 was > 100 µM and the TGI was > 100 µM. With `Nc1nc(Cl)cc(NCCCCCCNc2cc(Cl)nc(N)n2)n1` the TGI was 77.4 µM. In the case of `O=c1ncccn1C1OC(CO)C(O)C1F` (configuration not stated), the TGI is reported as > 100 µM. With `CC(=O)c1c(Nc2ccc(F)c(F)c2F)[nH]c2c(F)cc(F)cc2c1=O` the GI50 was 0.292 µM and the TGI was 9.2 µM. For `O=C1c2cc3c(cc2-c2c1c1cc(F)c(F)cc1c(=O)n2C[C@H](O)CO)OCO3`, the GI50 was 0.19 µM and the TGI was > 100 µM. In the case of `COc1ccc2c(c1)CCC(CN1CCN(CCOC(c3ccccc3)c3ccccc3)CC1)C2O` (configuration not stated), the TGI is reported as 29.5 µM. In the case of `COc1cc2c3c(c1OC)/C(=N/OS(=O)(=O)c1ccc(C)cc1)CC3N(S(=O)(=O)c1ccc(C)cc1)CC2` (configuration not stated), the TGI is reported as > 100 µM. `CCc1nc2c([nH]1)C(=O)c1ccccc1C2=O` was tested, and the TGI was > 100 µM. In the case of `CCCCOP1(=O)C=CC(Cl)=C(C)C1` (configuration not stated), the TGI is reported as > 100 µM. `Oc1ccc(C[C@@H]2CN[C@H](Cc3ccc(O)c(Br)c3)CN2)cc1` was tested, and the TGI was > 100 µM. `O=C(Nc1nc2ccc(F)cc2s1)c1cccnc1Nc1ccc(Cl)cc1Cl` gave a GI50 of 3.35 µM and a TGI of 19.6 µM. Molecule `OC(CCN1CCN(CCOC(c2ccc(F)cc2)c2ccc(F)cc2)CC1)c1ccc(Br)cc1` (configuration not stated) has a TGI of 23.4 µM. `Cc1cccc2c(N)c3cccc(C(=O)NCC[N+](C)(C)[O-])c3nc12` showed a TGI of 63.9 µM. With `Cc1cc(S(N)(=O)=O)c(S/C(=N\NS(=O)(=O)c2ccccc2)c2ccc(Cl)c(Cl)c2)cc1Cl` the GI50 was 66.8 µM and the TGI was > 100 µM. For `CC(=O)N=S(NC(=O)c1ccc(C)cc1)C(Cl)(Cl)Cl` (configuration not stated), the TGI was > 100 µM. With `O=C(O[C@@H](/C=C/c1ccccc1)P1(=O)N(Cc2ccccc2)[C@@H]2CCCC[C@H]2N1Cc1ccccc1)c1ccccc1` the TGI was > 100 µM. `COC(=O)c1ccc2cc(O)ccc2c1` was tested, and the TGI was > 100 µM. With `CN(C)CN1C(=O)/C(=N\n2c(-c3ccncc3)n[nH]c2=S)c2ccccc21` the TGI was > 100 µM. `Cc1cc2c(-c3nc4ccccn4c3NC34CC5CC(CC(C5)C3)C4)c(O)c(O)cc2c(O)c1-c1c(C)cc2c(-c3nc4ccccn4c3NC34CC5CC(CC(C5)C3)C4)c(O)c(O)cc2c1O` was tested, and the GI50 was 0.928 µM and the TGI was > 25 µM. `CCOc1ccccc1NC(=O)CCC(=O)NN` was tested, and the TGI was > 100 µM. With `O=C(O)C12C3C4(C(=O)O)C1C1(C(=O)O)C2C3(C(=O)O)C41` (configuration not stated) the TGI was > 100 µM. `NCCn1c2c(c3ccccc3c1=O)C(=O)c1ccccc1-2` showed a GI50 of 0.939 µM and a TGI of 3.68 µM. `Oc1cccc(-c2nc(N3CCOCC3)c3oc4ncccc4c3n2)c1` was tested, and the GI50 was 0.183 µM and 0.208 µM and the TGI was 1.66 µM and 3.26 µM. For `Fc1cccc(F)c1C1SCc2nc3cc(Cl)ccc3n21` (configuration not stated), the TGI was > 100 µM. For `O=C(/C=C/CC(O)(c1ccccc1)c1ccccc1)Nc1ccccc1Cl`, the TGI was > 100 µM.
